These results are taken from the RNAGym collection of RNA variant scans (doi:10.7554/elife.90254).

The source gives no read counts; variants with many changes may rest on few reads.

The chains are these.
B1: LINE1-mini (parent)
chain: GGCAGAGCUCAACACAGCGUGGCAAAGUGGCUGUGGCUAGACUGCC

In this series the parent is B1. The series can be described thus: self-cleavage, relative activity (ratio to wild type); higher = more cleavage; in vitro, sequencing; the parent is a self-cleaving ribozyme.
Regarding U9A C13A C18U C23U A24C C31A, the self-cleavage stood at 0.05.
Turning to U9A G19A U32G C46A, the self-cleavage was 0.03.
For U9A G17A C18A, the self-cleavage was determined as 0.01.
For U9A A16U C42A, the self-cleavage turned out to be 0.06.
C8U G33U G35U G36U: the self-cleavage is 0.02.
Consider U9A A14C U34C G36C C37U, for which the self-cleavage is 0.01.
With U9A U20G C45G C46G, the self-cleavage was found to be 0.11.
U9A A26G U34C A39C G44A: the self-cleavage was 0.
Take U9A G17C G22U G29C G30A: the self-cleavage was 0.11.
The value for U9A C10A G33C was 0.07.
As for U9A G29A G30U U32A G40C C45U, the self-cleavage amounted to 0.28.
Take U9A G30A G44A: the self-cleavage worked out at 0.07.
On to C8U U9G C10G G33A C46A, for which the self-cleavage amounted to 0.03.
In the case of C8U U43A G44U it was 0.2; in that of U9A G17A U43A, 0.03.
The value for U9A C13A G44C was 0.14; that for U9A G19A A25U was 0.24; that for U9A A12C G30C was 0.01.
For U9A C18G C45G, the self-cleavage amounted to 0.08.
Regarding C8U G33C G44A, the self-cleavage came to 0.04.
As for U9A G17A A26G C42A C45U, the self-cleavage was found to be 0.02.
As to U9A G21A C31A U32A G36U A39C, the self-cleavage turned out to be 0.02.
The value for U9A C23A C31A A39G C46U was 0.01; that for U9A A16C G21U G22U U34G U38G A41G was 0.02; that for U9A G35C C42G was 0.03.
Regarding U9A C10U A14U U28C G29A, the self-cleavage amounted to 0.15.
The value for U9A A25U C46U was 0.13; that for C8U U9A C15G was 0.28; that for U9A A25U A41U G44A C45G was 0.17.
For C8U U9G C13A G17U A25C, the self-cleavage turned out to be 0.06.
Take U9A A12U G33C C42G: the self-cleavage was 0.06.
As for C8U U20C G30C, the self-cleavage was found to be 0.02.
The value for U9A C10A G36C was 0.01.
With U9A A11U G21A U43C, the self-cleavage came out at 0.02.
Regarding U9A G19U U28G G40U, the self-cleavage turned out to be 0.03.
For U9A A11G G17U, the self-cleavage was 0.01.
Consider U9A C15G G29A G35A, for which the self-cleavage is 0.11.
Regarding U9A C15G U28G G40A C46G, the self-cleavage worked out at 0.07.
For U9A G27U G30U, the self-cleavage is 0.12.
In the case of U9A U20A G29C, the self-cleavage was 0.04.
Consider U9A C10G U20A U32A G36A A41G, for which the self-cleavage came out at 0.02.
The value for U9A U20C A25C G27A U38G was 0.03; that for U9A C15U U20C U32G C37G A41G C42A was 0.12; that for U9A G29A U32C was 0.02.
For C8U U9G G17C G27A U32C, the self-cleavage was determined as 0.04.
As to C8U G40A U43C, the self-cleavage was found to be 0.12.
The value for U9A A11C G30U was 0.03; that for U9A A16G G36C was 0.01.
In the case of U9A A12U G19A, the self-cleavage amounted to 0.11.
As to U9A C23G C37U, the self-cleavage was determined as 0.04.
On to U9A C31G G36C, for which the self-cleavage came out at 0.01.
U9A C31G G36U: the self-cleavage came out at 0.03.
Regarding C8U G36C A41G, the self-cleavage is 0.46.
In the case of U9A A16G C37A it was 0.07.
For the variant C8U U9A A12U, the self-cleavage worked out at 0.14.
In the case of U9A C13A U20A C23U, the self-cleavage was determined as 0.12.
U9A C10A U20C C42A: the self-cleavage was found to be 0.01.
Consider U9A A14U C15U G29U, for which the self-cleavage was 0.09.
In the case of U9A C15U A16C, the self-cleavage came out at 0.1.
With U9A A16U A25U C31A, the self-cleavage was determined as 0.01.
Take U9A G33U C45U: the self-cleavage stood at 0.06.
As for U9A G17U G35C U38A, the self-cleavage was 0.
For the variant U9A G19C G36C, the self-cleavage was 0.04.
In the case of U9A C15G A26G G29U C42A C46U, the self-cleavage worked out at 0.01.
Turning to U9A C10A A14C G21U A39U, the self-cleavage is 0.05.
For U9A G17U G19C U34G G44C, the self-cleavage was determined as 0.02.
Consider U9A A11U U20G, for which the self-cleavage came to 0.01.
In the case of U9A A25G G30U C45U it was 0.08; in that of U9A A11G G19C C37U C42G, 0.
Consider U9A G21C G27A, for which the self-cleavage worked out at 0.05.
As for U9A G22U A26C G40A, the self-cleavage amounted to 0.11.
With U9A C13U G19U A24U U28C, the self-cleavage was 0.06.
U9A C10U C18G G40U: the self-cleavage stood at 0.14.
As for U9A G21A U28C A41U, the self-cleavage was 0.27.
For the variant C8U G35U C37U U38C, the self-cleavage was determined as 0.2.
The value for U9A A11G U32A A41U was 0.02; that for C8U U9C C10A C23G G29U U32G G40U was 0.03.
For the variant C8U U9C C13G G33C, the self-cleavage worked out at 0.01.
For the variant U9A C13U C18A A26U G36U, the self-cleavage came to 0.03.
In the case of U9A G29A G36U, the self-cleavage was 0.26.
In the case of U9A C15U A16U A26C G36A, the self-cleavage stood at 0.04.
As to U9A A12G G21U, the self-cleavage came out at 0.05.
On to U9A C31U G40U, for which the self-cleavage turned out to be 0.
In the case of U9A A12G C15G, the self-cleavage was found to be 0.04.
In the case of U9A C10A A39C G40C C42G it was 0.01; in that of U9A A14G A24U U28C G36A C37U, 0.07.
With U9A C18G G21U G35A, the self-cleavage is 0.01.
With C8U U34C G44A, the self-cleavage is 0.12.
With U9A C15G G29U, the self-cleavage worked out at 0.05.
In the case of U9A G29C C37G C45A it was 0.05; in that of U9A G35A G36C C46U, 0.19; in that of U9A A11U A16U U20C G22A, 0.02.
Consider U9A G21C G27C G30A, for which the self-cleavage came out at 0.01.
As to U9A A12U A16C G17C G21C U28G, the self-cleavage came to 0.04.
Regarding U9A A14U A16C G36U C42A, the self-cleavage was determined as 0.01.
Consider C8U U20G A25C, for which the self-cleavage is 0.09.
Take C8U U28C U34A: the self-cleavage came to 0.18.
For C8U U9C C31U U34C, the self-cleavage worked out at 0.03.
For the variant U9A C31U A39U, the self-cleavage came to 0.03.
On to C8U U38C C46A, for which the self-cleavage amounted to 0.77.
As to U9A A25C G35U C42G, the self-cleavage was 0.01.
U9A C23U G30U A41U: the self-cleavage came out at 0.05.
The value for U9A G27C U38G A39U G40C was 0.02; that for U9A G21U C31G U32A G44A was 0.01.
Turning to U9A C13U G30C A39U C45A, the self-cleavage is 0.02.
Take U9A G27U U34A C42G C46G: the self-cleavage was 0.03.
For U9A A12U G22C C23G A24U G29A C42U, the self-cleavage was 0.05.
In the case of C8U U20G A41G it was 0.02; in that of U9C A11C C18A G44U, 0.02.
The value for C8U U9C U34A C37A was 0.07; that for U9A A24U G29U was 0.11.
As for U9A A16G A26G, the self-cleavage amounted to 0.09.
For the variant C8U U9A A16U, the self-cleavage was found to be 0.25.
Turning to U9A C10G C45A, the self-cleavage is 0.03.
For the variant U9A C13A G27U, the self-cleavage was 0.22.
In the case of C8U U9A U38A, the self-cleavage is 0.15.
The value for U9A A14C A16U G30C C31U was 0.04; that for U9A A11C U43A was 0.01; that for U9C A11C U28G U34C A39U was 0.02.
The value for U9A A25G G35C was 0.07; that for U9A G21A C23U was 0.49.
The value for U9A A11C A14C A25G was 0.01; that for C8U G33U U43C C45U was 0.19.
For U9C A11C G29U, the self-cleavage came out at 0.03.
In the case of U9A A25G G29C, the self-cleavage stood at 0.07.
U9A C15A G21U G27A C31U U38C: the self-cleavage was determined as 0.05.
Consider U9A U20G U28G, for which the self-cleavage was 0.25.
In the case of U9A C10U U28A, the self-cleavage came to 0.1.
For C8U U32A G40U A41U, the self-cleavage amounted to 0.31.
As to U9A A24G A26C U28G, the self-cleavage was determined as 0.13.
Consider U9A A26U G44A, for which the self-cleavage worked out at 0.15.
Turning to U9A A11C C13U A26C, the self-cleavage is 0.01.
The value for U9A G21A G27A C42U was 0.21; that for U9A G17C G29A A39U G40A was 0.14.
Turning to U9A C15A A26G, the self-cleavage was 0.07.
As for C8U U9C A12G G19A C23A U38G A39C A41U C42G, the self-cleavage amounted to 0.
In the case of C8U U34C G40U it was 0.11.
U9A C15A G17C A39G: the self-cleavage turned out to be 0.01.
The value for U9A G33A G35A was 0.11; that for C8U U9G C10A C42U was 0.02; that for U9A C10U C46A was 0.08.
For the variant U9A G27U A41G, the self-cleavage was found to be 0.13.
In the case of U9A U20C C42U it was 0.11; in that of U9A C15U C37A, 0.52; in that of U9A A12G U28C, 0.01.
In the case of U9A G40A C46A it was 0.13.
As to U9A C31U C45A, the self-cleavage is 0.02.
For U9A U28A U38G, the self-cleavage is 0.03.
With U9A C10U C15A, the self-cleavage turned out to be 0.05.
As for C8U U9C A25G A26G G35A G36U C46G, the self-cleavage was 0.02.
As for U9A C10U A11U C37U, the self-cleavage was 0.03.
C8U U9G C46G: the self-cleavage is 0.14.
In the case of C8U U9G G17C C18U it was 0.02.
Take U9A C37U C42G: the self-cleavage was determined as 0.01.
Consider U9A C10U A16C G35U, for which the self-cleavage stood at 0.02.
Turning to U9A C37G G44U, the self-cleavage turned out to be 0.12.
As for U9A C10U C18G G36U, the self-cleavage came out at 0.05.
With U9A G40U C46A, the self-cleavage came to 0.42.
In the case of U9A G29U C31A G33A, the self-cleavage was 0.02.
As for U9A A11G A14C, the self-cleavage came out at 0.02.
As to U9A C10U A14G C23G U28G G35A, the self-cleavage came out at 0.1.
For the variant U9A C15G G27U G36A, the self-cleavage was 0.06.
Turning to C8U U9G U32A G33A A41G, the self-cleavage amounted to 0.04.
Take U9A C10A A12U G17C G27U A39C: the self-cleavage came to 0.
As for U9A G22C G30A A41U, the self-cleavage stood at 0.11.
Take U9A G22A A26C C45U: the self-cleavage came out at 0.22.
In the case of C8U U32G U43A C46G, the self-cleavage was determined as 0.08.
